Measurements reported in the supplement of paper PMC8728848.
This is one part of the list.

Columns and labels:
Test in all cases: glycan array binding signal (z-score within array); higher = stronger binding
Settings in all cases: glycan notation: IUPAC condensed, linker removed
[1] = target: GlcNAc(b1-3)Gal(b1-4)Glc
In short: (§1)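 Negative Z-scores can be read as non-binding. The Z-score is calculated within each array and then averaged across arrays of one protein sequence at different concentrations or buffers and across linkers. Arrays, 3228 in all, were curated from the Consortium for Functional Glycomics database and kept only where the protein sequence was available.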

[2] = target: GlcNAc(b1-3)Gal(b1-4)GlcNAc
In short: as §1

[3] = target: GlcNAc(b1-3)Gal(b1-4)GlcNAc(b1-3)Gal(b1-4)GlcNAc
In short: as §1

[4] = target: GlcNAc(b1-3)GalNAc
In short: as §1

[5] = target: GlcNAc(b1-3)Man
In short: as §1

[6] = target: GlcNAc(b1-3)[GlcNAc(b1-4)][GlcNAc(b1-6)]GlcNAc
In short: as §1

[7] = target: GlcNAc(b1-3)[GlcNAc(b1-6)]Gal(b1-4)GlcNAc
In short: as §1

[8] = target: GlcNAc(b1-3)[GlcNAc(b1-6)]GalNAc
In short: as §1

[9] = target: GlcNAc(b1-4)Gal(b1-4)GlcNAc
In short: as §1

[10] = target: GlcNAc(b1-4)GlcNAc
In short: as §1

[11] = target: GlcNAc(b1-4)GlcNAc(b1-4)GlcNAc
In short: as §1

[12] = target: GlcNAc(b1-4)GlcNAc(b1-4)GlcNAc(b1-4)GlcNAc(b1-4)GlcNAc
In short: as §1

[13] = target: GlcNAc(b1-4)GlcNAc(b1-4)GlcNAc(b1-4)GlcNAc(b1-4)GlcNAc(b1-4)GlcNAc
In short: as §1

[14] = target: GlcNAc(b1-4)[GlcNAc(b1-6)]GalNAc
In short: as §1

[15] = target: GlcNAc(b1-6)Gal(b1-4)GlcNAc
In short: as §1

[16] = target: GlcNAc(b1-6)GalNAc
In short: as §1

[17] = target: GlcNAc3Prop(b1-4)GlcNAc
In short: as §1

[18] = target: Kdn(a2-3)Gal(b1-3)GlcNAc
In short: as §1

[19] = target: Kdn(a2-3)Gal(b1-4)GlcNAc
In short: as §1

[20] = target: Man(a1-2)Man(a1-2)Man(a1-3)Man
In short: as §1

[21] = target: Man(a1-2)Man(a1-2)Man(a1-6)[Man(a1-3)]Man
In short: as §1

[22] = target: Man(a1-2)Man(a1-3)Man
In short: as §1

[23] = target: Man(a1-2)Man(a1-3)[Man(a1-2)Man(a1-6)]Man
In short: as §1

[24] = target: Man(a1-2)Man(a1-3)[Man(a1-2)Man(a1-6)]Man(a1-6)[Man(a1-2)Man(a1-2)Man(a1-3)]Man
In short: as §1

[25] = target: Man(a1-2)Man(a1-3)[Man(a1-2)Man(a1-6)]Man(a1-6)[Man(a1-2)Man(a1-2)Man(a1-3)]Man(b1-4)GlcNAc(b1-4)GlcNAc
In short: as §1

[26] = target: Man(a1-2)Man(a1-3)[Man(a1-6)]Man(a1-6)[Man(a1-2)Man(a1-3)]Man(b1-4)GlcNAc(b1-4)GlcNAc
In short: as §1

[27] = target: Man(a1-2)Man(a1-6)[Man(a1-3)]Man(a1-6)[Man(a1-2)Man(a1-2)Man(a1-3)]Man
In short: as §1

[28] = target: Man(a1-2)Man(a1-6)[Man(a1-3)]Man(a1-6)[Man(a1-2)Man(a1-2)Man(a1-3)]Man(b1-4)GlcNAc(b1-4)GlcNAc
In short: as §1

[29] = target: Man(a1-3)[Man(a1-6)]Man
In short: as §1

[30] = target: Man(a1-3)[Man(a1-6)]Man(a1-6)[Man(a1-2)Man(a1-3)]Man(b1-4)GlcNAc(b1-4)GlcNAc
In short: as §1

[31] = target: Man(a1-3)[Man(a1-6)]Man(a1-6)[Man(a1-3)]Man
In short: as §1

[32] = target: Man(a1-3)[Man(a1-6)]Man(a1-6)[Man(a1-3)]Man(b1-4)GlcNAc(b1-4)GlcNAc
In short: as §1

[33] = target: Man(a1-3)[Man(a1-6)]Man(b1-4)GlcNAc(b1-4)GlcNAc
In short: as §1

[34] = target: Man(a1-6)Man
In short: as §1

[35] = target: Man(b1-4)GlcNAc
In short: as §1

[36] = target: Neu5Ac(a2-3)Gal
In short: as §1

[37] = target: Neu5Ac(a2-3)Gal(b1-3)GalNAc
In short: as §1

[38] = target: Neu5Ac(a2-3)Gal(b1-3)GalNAc(b1-3)Gal(a1-4)Gal(b1-4)Glc
In short: as §1

[39] = target: Neu5Ac(a2-3)Gal(b1-3)GalNAc(b1-3)Gal(b1-4)GlcNAc
In short: as §1

[40] = target: Neu5Ac(a2-3)Gal(b1-3)GalNAc(b1-4)[Neu5Ac(a2-3)]Gal(b1-4)Glc
In short: as §1

[41] = target: Neu5Ac(a2-3)Gal(b1-3)GalNAc6S
In short: as §1

[42] = target: Neu5Ac(a2-3)Gal(b1-3)GlcNAc
In short: as §1

[43] = target: Neu5Ac(a2-3)Gal(b1-3)GlcNAc(b1-3)Gal(b1-3)GlcNAc
In short: as §1

[44] = target: Neu5Ac(a2-3)Gal(b1-3)GlcNAc6S
In short: as §1

[45] = target: Neu5Ac(a2-3)Gal(b1-3)[Fuc(a1-4)]GlcNAc
In short: as §1

B1: mLPHN-1 (Mus musculus), Q80TR1 (protein)
chain: MARLAAALWSLCVTTVLVTSATQGLSRAGLPFGLMRRELACEGYPIELRCPGSDVIMVENANYGRTDDKICDADPFQMENVQCYLPDAFKIMSQRCNNRTQCVVVAGSDAFPDPCPGTYKYLEVQYDCVPYIFVCPGTLQKVLEPTSTHESEHQSGAWCKDPLQAGDRIYVMPWIPYRTDTLTEYASWEDYVAARHTTTYRLPNRVDGTGFVVYDGAVFYNKERTRNIVKYDLRTRIKSGETVINTANYHDTSPYRWGGKTDIDLAVDENGLWVIYATEGNNGRLVVSQLNPYTLRFEGTWETGYDKRSASNAFMVCGVLYVLRSVYVDDDSEAAGNRVDYAFNTNANREEPVSLAFPNPYQFVSSVDYNPRDNQLYVWNNYFVVRYSLEFGPPDPSAGPATSPPLSTTTTARPTPLTSTASPAATTPLRRAPLTTHPVGAINQLGPDLPPATAPAPSTRRPPAPNLHVSPELFCEPREVRRVQWPATQQGMLVERPCPKGTRGIASFQCLPALGLWNPRGPDLSNCTSPWVNQVAQKIKSGENAANIASELARHTRGSIYAGDVSSSVKLMEQLLDILDAQLQALRPIERESAGKNYNKMHKRERTCKDYIKAVVETVDNLLRPEALESWKDMNATEQVHTATMLLDVLEEGAFLLADNVREPARFLAAKQNVVLEVTVLNTEGQVQELVFPQEYPSENSIQLSANTIKQNSRNGVVKVVFILYNNLGLFLSTENATVKLAGEAGTGGPGGASLVVNSQVIAASINKESSRVFLMDPVIFTVAHLEAKNHFNANCSFWNYSERSMLGYWSTQGCRLVESNKTHTTCACSHLTNFAVLMAHREIYQGRINELLLSVITWVGIVISLVCLAICISTFCFLRGLQTDRNTIHKNLCINLFLAELLFLVGIDKTQYEVACPIFAGLLHYFFLAAFSWLCLEGVHLYLLLVEVFESEYSRTKYYYLGGYCFPALVVGIAAAIDYRSYGTEKACWLRVDNYFIWSFIGPVSFVIVVNLVFLMVTLHKMIRSSSVLKPDSSRLDNIKSWALGAIALLFLLGLTWAFGLLFINKESVVMAYLFTTFNAFQGVFIFVFHCALQKKVHKEYSKCLRHSYCCIRSPPGGTHGSLKTSAMRSNTRYYTGTQSRIRRMWNDTVRKQTESSFMAGDINSTPTLNRGTMGNHLLTNPVLQPRGGTSPYNTLIAESVGFNPSSPPVFNSPGSYREPKHPLGGREACGMDTLPLNGNFNNSYSLRSGDFPPGDGGPEPPRGRNLADAAAFEKMIISELVHNNLRGASGGAKGPPPEPPVPPVPGVSEDEAGGPGSADRAEIELLYKALEEPLLLPRAQSVLYQSDLDESESCTAEDGATSRPLSSPPGRDSLYASGANLRDSPSYPDSSPEGPNEALPPPPPAPPGPPEIYYTSRPPALVARNPLQGYYQVRRPSHEGYLAAPSLEGPGPDGDGQMQLVTSL
B1 was tested, and the “glycan array binding signal (z-score)” value [1] was -0.511, the “glycan array binding signal (z-score)” value [2] was -0.133 and the “glycan array binding signal (z-score)” value [3] was -0.092. The “glycan array binding signal (z-score)” value [4] was -0.105, the “glycan array binding signal (z-score)” value [5] was -0.07 and the “glycan array binding signal (z-score)” value [6] was -0.101. For the same binder, the “glycan array binding signal (z-score)” value [7] was -0.059, the “glycan array binding signal (z-score)” value [8] was -0.243 and the “glycan array binding signal (z-score)” value [9] was -0.419. The “glycan array binding signal (z-score)” value [10] was -0.282, the “glycan array binding signal (z-score)” value [11] was 1.08 and the “glycan array binding signal (z-score)” value [12] was 0.092. The “glycan array binding signal (z-score)” value [13] was -0.216, the “glycan array binding signal (z-score)” value [14] was 0.911 and the “glycan array binding signal (z-score)” value [15] was -0.209. The “glycan array binding signal (z-score)” value [16] was -0.462, the “glycan array binding signal (z-score)” value [17] was -0.326 and the “glycan array binding signal (z-score)” value [18] was -0.263. The “glycan array binding signal (z-score)” value [19] was -0.338, the “glycan array binding signal (z-score)” value [20] was -0.045 and the “glycan array binding signal (z-score)” value [21] was -0.024. For the same binder, the “glycan array binding signal (z-score)” value [22] was -0.173, the “glycan array binding signal (z-score)” value [23] was -0.476 and the “glycan array binding signal (z-score)” value [24] was -0.336. The “glycan array binding signal (z-score)” value [25] was 0.551, the “glycan array binding signal (z-score)” value [26] was -0.424 and the “glycan array binding signal (z-score)” value [27] was -0.279. For the same binder, the “glycan array binding signal (z-score)” value [28] was -0.101, the “glycan array binding signal (z-score)” value [29] was -0.232 and the “glycan array binding signal (z-score)” value [30] was -0.233. For the same binder, the “glycan array binding signal (z-score)” value [31] was -0.429, the “glycan array binding signal (z-score)” value [32] was -0.345 and the “glycan array binding signal (z-score)” value [33] was -0.51. For the same binder, the “glycan array binding signal (z-score)” value [34] was -0.5, the “glycan array binding signal (z-score)” value [35] was -0.414 and the “glycan array binding signal (z-score)” value [36] was -0.076. For the same binder, the “glycan array binding signal (z-score)” value [37] was -0.256, the “glycan array binding signal (z-score)” value [38] was -0.244 and the “glycan array binding signal (z-score)” value [39] was -0.227. The “glycan array binding signal (z-score)” value [40] was -0.478, the “glycan array binding signal (z-score)” value [41] was -0.162 and the “glycan array binding signal (z-score)” value [42] was 0.014. The “glycan array binding signal (z-score)” value [43] was -0.317, the “glycan array binding signal (z-score)” value [44] was 0.22 and the “glycan array binding signal (z-score)” value [45] was 0.
